Among all 150,000 compounds or so, about 180 (0.12%) were called active. The inconclusive results got no clear call from the source; some entries with a clear call stand among them for comparison. Calls follow the shape of the dose curve; as a rule, active = well fitted cell-killing curve with a large enough effect; inconclusive = small, poorly fitted or top-dose-only effect, or effect the other way; inactive = flat fitted curve, though single readings scatter. Where the call is inconclusive, the potency comes from a doubtful curve fit.
Assay: GF-AFC viability counterscreen for inhibitors of alpha-synuclein gene (SNCA) expression; also: nearly all actives have a fitted effect of over 30% in size;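 as to activity change, negative = cytotoxicity: 0% = DMSO-treated cells and -100% = medium-only wells without cells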
Details: HEK-293-SNCA-luc viability, GF-AFC fluorescence, 24 h; activity change, negative = cytotoxicity: at 57.1 µM (top of the series) unless noted
How it was run: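 HEK-293-SNCA-luc cells (1500/well) plated 24 h, then exposed 24 h to a dilution series; GF-AFC added 30 min at 37C, fluorescence 405/540 nm; normalised to medium-only and DMSO wells, Hill fit.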
Potency is read from the fitted curve at half-maximal effect; tags tell the direction and shape of the fitted curve.

SMILES | Potency | activity change, negative = cytotoxicity
O=C(C1CCCCC1)N1Cc2[nH]cnc2C[C@H]1c1nc(-c2ccc3ccccc3c2)no1 | inconclusive: 56.2 µM [cytotoxic, single point] | 
Cc1noc(C)c1-c1ccc2ncnc(NC3CCNCC3)c2c1 | inconclusive: 2.82 µM [rising, full curve, poor fit] | 
CCN(CC)C(=O)C(NC(=O)c1ccc(C)cc1)C1CCN(C(=O)c2cccc(OC)c2)CC1 (stereo not drawn) | inactive | 
CN(Cc1ccccc1)C(=O)C1(c2ccc(NC(=O)C3CC3)cc2)CCCCC1 | inactive | 
CC1(COc2ccccc2)COc2ccc(C(=O)NCc3cccs3)cc2N1 (stereo not drawn) | inactive | 
CCC(C)n1c(=O)c2sccc2n2c(CCCC(=O)N3CCN(c4ccccc4)CC3)nnc12 (stereo not drawn) | inconclusive: 10 µM [cytotoxic, partial curve] | 
C=C1C(=O)OC2/C=C(/C)C3=CC(=O)C(C)(CC(OC(=O)/C(C)=C/COC(C)=O)C12)O3 (stereo not drawn) | inconclusive: 5.82 µM [cytotoxic, single point] | 
O=C(NC1CCCCCC1)c1ccc2nc(-c3ccnc(Cl)c3)oc2c1 | inactive | 
COCCN(C)C(=O)C1(C)CN(Cc2ccccc2)Cc2ccc(NCC(C)C)nc21 (stereo not drawn) | inconclusive: 3.55 µM [rising, full curve, poor fit] | 
COc1cc(/C=C2\CCCN([C@@H](C)c3ccc(F)cc3)C2=O)ccc1-n1cnc(C)c1 | inconclusive: 29.9 µM [cytotoxic, partial curve, poor fit] | 
COc1cccc2c1OCCCN(c1cc(C3CC(O)C3)nc(N)n1)C2 (stereo not drawn) | inconclusive: 5.01 µM [cytotoxic, partial curve, poor fit] | 
CCn1cc(C(=O)N2C[C@@H](COC)[C@H](c3nc(C)no3)C2)cn1 | inconclusive: 6.31 µM [cytotoxic, single point] | 
O=C(CNC(=O)c1cccc(-c2ccsc2)c1)NCCCc1ccccc1 |  | inactive: 2.95% [at 12.5 µM]
O=C(c1ccc2nnc(-c3ccc(OC(F)(F)F)cc3)n2c1)N1CCOCC1 | inconclusive: 3.16 µM [cytotoxic, single point] | 
Cc1cccc(N(C)C(=O)Cn2c(=O)n(-c3cccc(C)c3)c(=O)c3c2cc(C)n3C)c1 | inconclusive: 3.55 µM [cytotoxic, full curve, poor fit] | 
COc1ccc(-c2nc3nc(C)cc(C)n3c2Nc2c(C)cccc2C)cc1 | inconclusive: 15.8 µM [cytotoxic, partial curve, poor fit] | 
Cc1cccc(CC(=O)N2CCCCCC2c2nnc(-c3ccccc3)o2)c1 (stereo not drawn) | inactive | 
O=C(NCc1ccc(F)cc1)c1cn2cc(-c3ccc(C(F)(F)F)cc3)sc2n1 | inconclusive: 7.94 µM [cytotoxic, partial curve, poor fit] | 

— PubChem BioAssay AID1671193 (National Center for Advancing Translational Sciences (NCATS), 2021)
